Molecular target: vimentin in lupus nephritis kidney tissue, P08670
Assay: multi-color confocal microscopy of lupus kidney tissue, anti-FLAG detection
Details: chain shown with the change;, read off a plot

Chain of vimentin in lupus nephritis kidney tissue, P08670 (P08670 whole entry): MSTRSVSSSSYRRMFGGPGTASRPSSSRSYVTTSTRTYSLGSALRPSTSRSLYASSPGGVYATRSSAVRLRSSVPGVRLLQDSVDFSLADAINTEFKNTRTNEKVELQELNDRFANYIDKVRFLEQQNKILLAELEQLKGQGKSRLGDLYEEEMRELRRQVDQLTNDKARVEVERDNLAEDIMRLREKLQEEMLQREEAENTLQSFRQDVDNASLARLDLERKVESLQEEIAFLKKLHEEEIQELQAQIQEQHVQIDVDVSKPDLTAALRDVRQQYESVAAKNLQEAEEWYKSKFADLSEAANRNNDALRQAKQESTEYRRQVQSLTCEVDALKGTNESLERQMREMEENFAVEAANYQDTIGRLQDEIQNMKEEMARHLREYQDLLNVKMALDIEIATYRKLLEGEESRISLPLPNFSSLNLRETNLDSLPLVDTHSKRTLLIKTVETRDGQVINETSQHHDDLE

B1: FLAG-tagged PB5mut PB5rev (all somatic hypermutations of heavy and light chain reverted to predicted germline; substitutions not printed) (protein)
chain 1: QVQLVESGGGVVQPGRSLRLSCAASGFTFSSYAMHWVRQAPGKGLEWVAVISYDGSNKYYADSVKGRFTISRDNSKNTLYLQMNSLRAEDTAVYYCARERRGNSDYFDYWGQGTLVTVSS
chain 2: EIVMTQSPATLSVSPGERATLSCRASQSVSSNLAWYQQKPGQAPRLLIYGASTRATGIPARFSGSGSGTEFTLTISSLQSEDFAVYYCQQYNNWPPMYTFGQGTKLEIK
With B1 the other: F.O.V. Co-var. (correlation coefficient between TII mAb channel and V9 channel) (parent: est. 0.40) was 0.15 and the response (parent: est. 4700) was 3200 MPI.
